The numbers were not newly measured in publication PMC11006913, which cites them from elsewhere.

Where a chain is given by its changes, count along the chain named. The list shows a part of the results.

What all share (conditions): PBM; conditions not shown; double strand, one strand shown; scale: upbm affinity estimate (log intensity, higher = more binding, comparable within an allelic series)
The target in data set [1] is ARX (Homo sapiens) (UniProt Q96QS3).
Data set [2] deals with ARX L343Q (Homo sapiens) (UniProt Q96QS3).
Data set [3] deals with ARX P353L (Homo sapiens) (UniProt Q96QS3).
Data set [4] addresses ARX P353R (Homo sapiens) (UniProt Q96QS3).
Data set [5] concerns the target ARX T333N (Homo sapiens) (UniProt Q96QS3).
The target of data set [6] is ARX R332H (Homo sapiens) (UniProt Q96QS3).
The target of data set [7] is PROP1 R112Q (Homo sapiens) (UniProt O75360).
Data set [8] addresses PROP1 R99Q (Homo sapiens) (UniProt O75360).
Data set [9] deals with NKX2-5 K183E (Homo sapiens) (UniProt P52952).
The target of data set [10] is NKX2-5 R161P (Homo sapiens) (UniProt P52952).
The target of data set [11] is NKX2-5 R190C (Homo sapiens) (UniProt P52952).
The target in data set [12] is T1, PBX4 (Homo sapiens) (UniProt Q9BYU1).
T1 sequence: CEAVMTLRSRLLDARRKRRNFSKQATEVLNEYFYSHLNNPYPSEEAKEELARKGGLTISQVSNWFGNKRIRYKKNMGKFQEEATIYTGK

In data set [13] the target is T2, PBX4 R215Q (Homo sapiens) (UniProt Q9BYU1).
T2 sequence: T1 sequence with R19Q

Data set [14] deals with PITX2 L100Q (Homo sapiens) (UniProt Q99697).
The target in data set [15] is PITX2 R108H (Homo sapiens) (UniProt Q99697).
The target in data set [16] is PITX2 R130W (Homo sapiens) (UniProt Q99697).
Data set [17] addresses PITX2 T114P (Homo sapiens) (UniProt Q99697).
Data set [18] deals with ISX (Homo sapiens) (UniProt Q2M1V0).
Data set [19] deals with ISX R83Q (Homo sapiens) (UniProt Q2M1V0).

ATCATTGA [8-mer ATCATTGA]: the binding signal was 11.3 in [1]; 10.8 in [2]; 11.2 in data set [3]; 10.8 in data set [4]; 11.1 in data set [5].

For ATTACTAG [8-mer ATTACTAG], the binding signal is 11.5 in data set [1]; 10.7 in data set [2]; 11.4 in [3]; 10.7 in data set [4]; 10.8 in [6]; 11.1 in data set [5]. For the same sequence, the binding signal in data set [7] was 11.9; in data set [8], 11.6.

As for CCGTGGCC [8-mer CCGTGGCC], the binding signal in [1] is 10.3; in [2] it was 10.1; in data set [3], 10.3; in [4], 10.1; in data set [6], 10.1; in data set [5], 10.2. In addition, the values for the binding signal in data set [9], in [10] and in data set [11] were 9.97, 10.1 and 10.1, respectively.

For the sequence CGGGCACG [8-mer CGGGCACG], the binding signal in [1] was 10.2; in data set [2] it was 10.1; in [3] it was 10.2; in data set [4], 10.1; in data set [6], 10.1; in data set [5] it was 10.2. For the same sequence, the binding signal in [7] and in data set [8] was 10.8 each time.

Take CAATTGGG [8-mer CAATTGGG]: the binding signal in data set [1] was 11.3; in data set [2], 10.5; in data set [3] it was 11.2; in [4] it was 10.5; in [6], 10.8; in [5] it was 11. For the same sequence, the binding signal in data set [7] is 12.2.

In the case of AATTACTG [8-mer AATTACTG], the binding signal was 12.6 in [1]; 11 in [2]; 12.1 in data set [3]; 10.9 in data set [4]; 11 in data set [6]; 11.7 in [5]. Besides, the binding signal in data set [8] is 12.2.

Turning to ACCCCAGG [8-mer ACCCCAGG], the binding signal in [1] was 10.2; in data set [2] it was 10.1; in [3], 10.2; in [4], 10; in data set [6], 10.2; in data set [5] it was 10.2. In addition, the binding signal is 9.67 in data set [12]; 9.76 in data set [13]; 8.49 in data set [14]; 8.04 in data set [15]; 7.87 in [16]; 8.21 in data set [17].

With CCCTGGGC [8-mer CCCTGGGC], the binding signal in data set [1] was 10.1; in data set [2], 10.1; in data set [3], 10.2; in data set [4] it was 10; in data set [6] it was 10; in data set [5], 10.2. Further, the binding signal in [7] and in data set [8] was 10.9 in each case.

On to CCCAGAGG [8-mer CCCAGAGG], for which the binding signal in data set [1] was 10; in data set [2], 9.96; in data set [3], 9.9; in [4] it was 9.89; in data set [6] it was 10; in [5], 10.1. The binding signal in [14] is 8.13; in [15], 7.98; in data set [16], 7.79; in data set [17], 7.97; in [7] it was 10.8; in [8], 10.8.

Turning to GCGGACGC [8-mer GCGGACGC], the binding signal in data set [1] is 10.1; in data set [2] it was 10.1; in [3], 9.99; in data set [4] it was 10.1; in [6], 10.1; in data set [5], 10.1. The binding signal was 7.96 in [14], 8.06 in data set [15], 7.9 in data set [16] and 8.07 in [17].

Regarding ACCGCCTC [8-mer ACCGCCTC], the binding signal in [1] is 10.2; in data set [2], 10.1; in data set [3], 10.3; in data set [4] it was 10.1; in [6], 10.1; in data set [5] it was 10.3. Further, the figures for the binding signal in data set [9], in data set [10] and in data set [11] were 10.3, 10.4 and 10.2, respectively.

Take GAAATTGC [8-mer GAAATTGC]: the binding signal in data set [1] is 11.1; in data set [2], 10.6; in [4] it was 10.6.

Take CACGCGGG [8-mer CACGCGGG]: the binding signal in [1] is 10.1; in data set [2], 10.1; in data set [3] it was 10.1; in [4], 10; in data set [6], 10.1; in data set [5], 10.2. Moreover, the binding signal is 9.73 in data set [18]; 9.68 in data set [19]; 8.07 in data set [14]; 8.07 in data set [15]; 7.91 in data set [16]; 8.05 in data set [17].
